# Assay results as given in the supplement of paper PMC12217912.
# Some of the results follow. Sequences were assembled here from the parent chain. Values near 0.05 are background.
# B1: TEV protease; numbered along this chain (parent)
# chain: MGESLFKGPRDYNPISSSICHLTNESDGHTTSLYGIGFGPFIITNKHLFRRNNGTLVVQSLHGVFKVKDTTTLQQHLVDGRDMIIIRMPKDFPPFPQKLKFREPQREERICLVTTNFQTKSMSSMVSDTSCTFPSGDGIFWKHWIQTKDGQCGSPLVSTRDGFIVGIHSASNFTNTNNYFTSVPKNFMELLTNQEAQQWVSGWRLNADSVLWGGHKVFMVKPEEPFQPVKEATQL
# Variants of: B1
# Assay: raw area under fraction-flipped curve 0-4 h after induction (AUC4h, not background-subtracted), DNA-recorder readout of cleavage of the substrate (dimensionless); higher = more cleavage of the substrate by the protease variant
# Conditions: temperature: 34 °C; time window: 0-4 h after rhamnose induction
# Experimental: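 In vivo DNA recorder in E. coli TOP10(DE3) ΔrhaA at 34 °C. Each TEVp single-site mutant (parent TEVp 0) is paired with a single-site variant of the 7-mer TEVs (canonical ENLYFQ|S). The substrate sits between flexible linkers in a Bxb1-sfGFP-TEVs-SsrA fusion, so cleavage stabilises Bxb1 and speeds flipping of a recombination array, read by NGS. The value is the raw area under the fraction-flipped curve over 0-4 h after rhamnose induction (AUC4h), with ≥20 reads per time point. It is not background-subtracted; inactive controls average about 0.047.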
# 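Also: Bxb1 expression induced with 0.2% (w/v) L-rhamnose at OD600 near 0.5, cultures sampled hourly, flipped fraction per protease–substrate barcode pair counted by paired-end Illumina sequencing.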
Variant,area with substrate ENLYFAS,area with substrate ENLYFCS,area with substrate ENLYFDS,area with substrate ENLYFES,area with substrate ENLYFFS,area with substrate ENLYFGS,area with substrate ENLYFHS,area with substrate ENLYFIS,area with substrate ENLYFKS,area with substrate ENLYFMS,area with substrate ENLYFNS,area with substrate ENLYFPS,area with substrate ENLYFSS,area with substrate ENLYFTS,area with substrate ENLYFLS,area with substrate ENLYFRS,area with substrate ENLYFWS,area with substrate ENLYFYS,area with substrate ENLYFVS
H29Q,0.0507,0.0564,0.0618,0.0551,0.0698,0.059,0.0742,0.0582,0.0709,0.0354,0.0507,0.0756,0.0404,0.0604,–,–,–,–,–
H29W,0.0547,0.0563,0.0634,0.0651,0.0612,0.0608,0.0589,0.0569,–,0.0807,–,–,0.0603,–,0.0575,0.0595,0.058,0.0436,–
G28M,0.0575,0.0597,–,0.0643,0.0693,0.0476,0.0646,0.0516,–,0.0534,0.04,0.0579,0.0641,0.0549,0.0526,0.0631,0.0475,0.0584,0.0581
G28S,0.063,0.0516,0.0567,0.0669,0.0665,–,0.0544,0.0552,0.0541,0.0637,0.0633,0.0659,0.0569,0.0596,0.0616,0.0648,–,0.0552,0.0579
L22A,0.0536,0.0481,0.0487,0.0272,0.0803,0.045,0.0457,0.0613,0.0502,0.0513,0.0506,0.0554,–,0.0549,0.0487,0.0576,0.0445,0.0573,0.0567
S26V,0.0502,0.0635,0.0704,0.048,0.0862,0.0601,0.06,0.0543,0.0585,0.0512,0.0601,0.0567,–,0.0526,0.0659,–,0.0522,–,0.0452
T31R,0.042,0.0498,–,0.061,0.0637,–,–,0.0587,0.0583,0.0635,0.0761,0.0692,–,–,0.0583,0.0531,–,–,0.0117
T31G,0.0454,0.0558,–,0.0485,0.0669,–,0.0509,0.0466,0.0568,0.0645,0.04,0.0614,0.0658,–,–,0.0513,0.0543,0.0292,0.0531
I19Q,0.0724,0.0457,0.0419,0.0567,0.0674,0.0506,0.0802,0.0536,0.0629,0.0646,0.0566,0.0634,–,0.0473,0.0368,–,–,–,0.0502
I19T,0.0564,–,–,–,0.048,0.0568,–,0.049,0.0584,0.0572,0.0679,0.0619,–,0.0684,0.0546,–,0.0555,0.0528,–
D27V,0.0501,0.0647,0.0601,0.0595,–,0.0476,–,0.0476,0.0808,0.0561,0.0589,–,–,0.0633,0.0739,–,0.0536,–,0.0605
S32N,0.0544,–,–,0.0685,0.0735,0.0644,–,0.0421,0.0581,0.0622,0.052,0.0634,0.0552,0.0594,–,0.0688,0.0527,0.0692,0.0482
C20E,0.0471,0.0332,–,0.0416,0.0681,0.0422,0.0348,0.0459,0.0376,0.0389,0.0549,0.0521,0.0496,0.048,0.058,0.0455,0.0392,0.0294,–
H21K,0.0576,0.0636,0.0653,0.065,0.0678,0.0713,0.0491,0.0518,0.0588,0.0566,0.0865,0.0522,–,0.0672,0.0642,0.0556,0.0573,–,–
H21S,0.0492,0.0643,–,0.0569,0.0633,0.0591,–,0.0678,0.0633,0.0737,0.0777,0.0373,–,0.0632,0.0642,0.0532,–,0.0445,0.0575
T23M,0.0589,0.0525,–,0.0619,0.0848,–,0.0692,0.0592,0.0694,0.0613,0.0655,0.0636,0.0607,0.06,0.0544,0.0638,0.0502,–,0.0538
T23Q,0.0602,0.0636,–,0.0666,0.0595,–,0.0247,0.0569,0.065,0.0667,–,0.0449,–,0.0335,0.0619,0.0547,0.0861,0.0652,–
Y12P,0.0622,0.0664,0.0546,0.0642,0.0658,0.0666,0.0497,0.0519,0.0796,0.0623,0.0541,0.0585,0.0569,0.0617,0.0591,0.0666,0.0492,0.0613,0.0565
E25A,0.0533,0.0524,0.0614,0.0705,0.0624,–,0.0549,0.0506,0.0576,0.0687,0.0605,0.0536,–,0.0669,–,0.0593,0.0497,–,0.0539
D11R,0.0599,0.0473,0.0679,0.0608,0.0575,–,0.046,0.061,0.0622,0.0605,0.0625,0.0673,0.0602,0.0368,0.0651,0.147,0.0416,0.0478,0.0619
S18V,0.0515,0.0654,0.0539,0.0726,0.0685,0.0637,0.0559,0.0547,0.0655,0.0644,0.058,0.0434,0.0508,0.0459,0.0716,0.0481,0.0707,0.0607,–
S18F,0.0539,0.0532,0.0625,0.061,0.0757,0.0758,0.0603,0.0549,0.0575,0.0617,0.0541,0.0608,0.0525,0.0565,–,–,0.0682,0.056,0.0705
S18P,0.102,0.044,–,0.0486,–,–,0.0273,0.0624,0.053,0.0512,0.0452,0.0619,–,0.0669,0.0535,0.0508,0.057,0.0637,–
